About 31,000 (8.9%) of roughly 350,000 compounds were called active. Inconclusive means that the source gave no clear call. Such entries were picked first, then a sample of the others. Calls come from the whole dose curve; as a rule, active = well fitted inhibition curve with a large enough effect; inconclusive = small, poorly fitted or top-dose-only effect; inactive = no such curve, though single readings can be large or run the other way. A potency beside an inconclusive call is a rough fit, not a confirmed value.
Molecular target: Histone-lysine N-methyltransferase EHMT2 (Homo sapiens) (UniProt Q96KQ7)
Experiment: qHTS Assay for Inhibitors of Histone Lysine Methyltransferase G9a; note: nearly all actives have a fitted effect of over 75% in size
Settings: G9a H3K9 monomethylation, AlphaScreen, 2 h; activity, negative = inhibition: at 59 µM (top of the series) unless noted
Description: Methylated lysines, on the N-terminal tails of histone proteins serve as epigenetic markers to recruit factors that can then modify local chromatin structure to lead to functional consequences. G9a and other members of the SUV39 family of the SET domain-containing superfamily of histone lysine methyltransferases (HMT) have been identified to specifically methylate Lys9 of histone H3 (H3K9). G9a catalyzes the mono- and di-methylation of H3K9 in mammalian euchromatic regions, where the resulting H3K9me2 is indicative of transcriptional repression. […] The inhibition of G9a will result in transcriptional activation and work synergistically with DNA methyltransferase and histone deacetylase inhibitors, to kill cancer cells. This qHTS assay for identification of G9a inhibitors is a chemiluminescence based AlphaScreen (PerkinElmer). Methylation of biotinylated-histone peptide is measured through specific antibody-based detection, in conjunction with streptavidin-coated donor and anti-IgG antibody-coated acceptor beads. The method is particularly well suited for detection of inhibitors acting by the desired histone peptide competitive mechanism and is applicable to testing other HMTs. Although AlphaScreen has significant advantages with its utility in a variety of epigenetic target assays, the primary screening data provided in this deposition should be used with caution due to the prevalence of screening artifacts. An AlphaScreen counterscreen is highly recommended to be run against any putative actives to eliminate non specific artifacts. Alternatively, one can use other AlphaScreen assays in PubChem to filter out promiscuous hits. Quinn et al. A chemiluminescence-based method for identification of histone lysine methyltransferase inhibitors. Mol Biosyst 6(5): 782-8. 2010. PMID: 20567762 [2] Baell,Holloway. New substructure filters for removal of pan assay interference compounds (PAINS) from screening libraries and for their exclusion in bioassays. J Med Chem. 53(7):2719-40. 2010. PMID: 20131845 NIH Molecular Libraries Probe Production Network [MLPCN] NIH Chemical Genomics Center [NCGC] Structural Genomics Consortium (SGC) NIH Grant: 5U54 MH084681-02
To each well of a 1,536w plate, 2ul of HMT enzyme (final 20nM) were added, using a nanoliter dispenser. The G9a- and GLP-inhibitor BIX-01294 (CID: 25150857) are used as an intraplate control, with a 16-point titration in duplicate. A Kalypsys pin-tool transferred 23nl of library compound solution in DMSO to each well. Following a 15 min incubation of enzyme with compounds at room temperature, 1ul mixture of b-H3K9 peptide substrate (final 500nM) and SAM cofactor (final 20uM) were added. Reactions were allowed to proceed at room temperature for 2 hours. Methylated b-H3K9 peptide product was detected with 0.5 ug/mL rabbit polyclonal anti-monomethyl histone H3K9 antibody (Abcam Inc., Cambridge, MA) and 20 ug/mL each streptavidin-coated donor and anti-rabbit IgG acceptor AlphaScreen beads. Antibody and beads were added in a 1ul dispense, for a final volume of 4ul, and plates were incubated, protected from the light, for 10 min at room temperature. Microplates were then read on an EnVision multilabel plate reader using the 1,536 plate HTS AlphaScreen aperture (excitation time 80 ms, measurement time 240 ms).
% is set by controls: 0 for no effect and ±100 for the full control effect; potency is the fitted concentration of half-maximal effect; tags give direction and shape of the fitted curve.

UniProt Q96KQ7, sequence (Q96KQ7 whole entry, looked up): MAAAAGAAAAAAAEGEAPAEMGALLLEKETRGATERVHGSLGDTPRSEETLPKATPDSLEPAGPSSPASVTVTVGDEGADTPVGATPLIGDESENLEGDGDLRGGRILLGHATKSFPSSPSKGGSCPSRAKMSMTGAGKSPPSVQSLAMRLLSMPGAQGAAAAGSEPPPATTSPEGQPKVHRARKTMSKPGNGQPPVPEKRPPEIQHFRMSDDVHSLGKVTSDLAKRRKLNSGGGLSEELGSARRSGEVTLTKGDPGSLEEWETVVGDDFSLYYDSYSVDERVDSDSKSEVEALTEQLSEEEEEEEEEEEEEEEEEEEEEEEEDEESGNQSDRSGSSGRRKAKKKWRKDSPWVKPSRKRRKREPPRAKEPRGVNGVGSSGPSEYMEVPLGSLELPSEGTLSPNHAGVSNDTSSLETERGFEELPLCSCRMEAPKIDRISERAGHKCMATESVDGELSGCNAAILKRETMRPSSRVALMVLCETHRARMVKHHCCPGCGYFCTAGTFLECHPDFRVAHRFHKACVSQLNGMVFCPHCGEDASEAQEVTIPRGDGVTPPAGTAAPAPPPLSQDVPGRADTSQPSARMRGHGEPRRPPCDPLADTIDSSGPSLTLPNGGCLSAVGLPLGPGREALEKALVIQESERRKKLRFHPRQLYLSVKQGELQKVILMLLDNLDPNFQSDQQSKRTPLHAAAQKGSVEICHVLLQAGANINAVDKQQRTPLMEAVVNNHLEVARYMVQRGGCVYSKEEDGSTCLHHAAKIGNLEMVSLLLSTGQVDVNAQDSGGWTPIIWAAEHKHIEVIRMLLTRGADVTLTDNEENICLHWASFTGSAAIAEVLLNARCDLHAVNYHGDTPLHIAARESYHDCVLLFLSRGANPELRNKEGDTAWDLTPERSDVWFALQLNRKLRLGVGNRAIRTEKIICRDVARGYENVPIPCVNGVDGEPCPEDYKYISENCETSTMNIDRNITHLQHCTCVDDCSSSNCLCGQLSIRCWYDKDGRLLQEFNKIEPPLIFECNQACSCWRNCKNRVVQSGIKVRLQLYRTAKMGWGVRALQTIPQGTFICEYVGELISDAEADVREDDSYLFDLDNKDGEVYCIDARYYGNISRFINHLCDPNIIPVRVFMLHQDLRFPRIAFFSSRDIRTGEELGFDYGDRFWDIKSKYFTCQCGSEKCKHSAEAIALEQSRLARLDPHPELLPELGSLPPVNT

Row | Compound | Potency | activity, negative = inhibition
1 | CC(=O)C1=C(O)C(=O)N(c2ccccn2)C1c1ccccc1[N+](=O)[O-] (centres undefined) | inconclusive: 50.1 µM [inhibitor, partial curve, poor fit] | –
2 | Cc1ccc(-c2csc3nc4cc(C(N)=O)ccc4c(=O)n23)cc1 | inactive | –
3 | CCN(c1ccc(NC(=O)CN2C(=O)NC3(CCOc4ccccc43)C2=O)cc1)C(C)C (centres undefined) | active: 3.16 µM | –
4 | COc1ccccc1C(=O)COC(=O)CCCN=C1NS(=O)(=O)c2ccccc21 | inactive | –
5 | O=C(CN1C(=O)/C(=C\c2cccs2)SC1=S)Nc1cccc(C(=O)O)c1 | inconclusive: 50.1 µM [inhibitor, partial curve] | –
6 | CCN(CC)CCC(c1ccc(N(C)C)cc1)c1c(OC)cc(OC)c2ccc(=O)oc12 (centres undefined) | – | inconclusive: -76.9% [inhibitor]
7 | COC(=O)c1sc(S(=O)(=O)NCc2cccs2)c(C(=O)OC)c1C | inactive | –
8 | O=C(O)c1ccc(CSc2nnc(COc3ccc(Cl)cc3Cl)o2)cc1 | inconclusive: 100 µM [inhibitor, single point] | –
9 | CC(C)(O)C(=O)N/N=C\c1ccc(OC/C=C/c2ccccc2)cc1 | inconclusive: 79.4 µM [inhibitor, single point] | –
10 | COc1cccc(Cn2c(=O)c(-c3cccc(C#N)c3)nc3cnc(Nc4ccccc4)nc32)c1 | – | inactive: 3.6% [at 12.7 µM]
11 | CC(=O)Cc1nsc(NC(=O)c2ccc(-c3cccc(C(F)(F)F)c3)o2)n1 | inconclusive: 1.58 µM [inhibitor, partial curve, poor fit] | –
12 | CCc1nc2scc(-c3cccs3)c2c(=O)o1 | inconclusive: 35.5 µM [inhibitor, single point] | –
13 | Cc1ccc(-n2c(-c3ccccc3)c[nH]c2=S)cc1 | active: 2.82 µM | –
14 | Cc1ccc2cccc(O)c2[n+]1[O-] | – | inconclusive: -58.1% [inhibitor]
15 | CC(C)Cc1nnc(NC(=O)CCC(=O)N2CC(C)CC(C)C2)s1 (centres undefined) | inactive | –
16 | COC(=O)C1=C(C)N(Cc2ccco2)C(=O)N[C@@H]1c1ccccc1 | inconclusive: 89.1 µM [inhibitor, single point] | –
17 | COc1ccc(CN(C(=O)Cn2nnc(-c3ccc(C)o3)n2)C(C(=O)NCC2CCCO2)c2ccco2)cc1 (centres undefined) | inconclusive: 79.4 µM [inhibitor, single point] | –
18 | CCc1ccc(NC(=O)CCS(=O)(=O)c2ccc(Br)cc2)cc1 | inconclusive: 79.4 µM [inhibitor, partial curve, poor fit] | –
19 | O=C(COc1ccc(Cl)cc1Cl)Nc1ccccc1NS(=O)(=O)c1cccs1 | inconclusive: 39.8 µM [inhibitor, single point] | –

Source: PubChem BioAssay AID504332 (National Center for Advancing Translational Sciences (NCATS), 2011)
